Results are given in words; binding and its absence hold for the method and conditions named. In cells and extracts the contact can be indirect. Some entries that bind do so weakly or less than the wild type. For part of these data: Where a sequence is shown, tags or fusion partners need not be part of it. Values belong to the substance of their own block, whether it stands above or below them.
Tests used:
[1] = target: GST-fused CNOT10 (UniProt Q8BH15); assay: pull-down; protein extracts from E. coli expressing GST-fused CNOT proteins combined with MBP-NANOS3; precipitated with glutathione sepharose; CNOT proteins seen by Coomassie staining, co-precipitated MBP-NANOS3 by western blotting; only the binder purified
[2] = target: GST-fused CNOT2 (UniProt Q8C5L3); assay: as above
[3] = target: GST-fused CNOT3 (UniProt Q8K0V4); assay: as above
[4] = target: T1, GST-fused CNOT4 (UniProt Q8BT14); assay: as above
T1 sequence: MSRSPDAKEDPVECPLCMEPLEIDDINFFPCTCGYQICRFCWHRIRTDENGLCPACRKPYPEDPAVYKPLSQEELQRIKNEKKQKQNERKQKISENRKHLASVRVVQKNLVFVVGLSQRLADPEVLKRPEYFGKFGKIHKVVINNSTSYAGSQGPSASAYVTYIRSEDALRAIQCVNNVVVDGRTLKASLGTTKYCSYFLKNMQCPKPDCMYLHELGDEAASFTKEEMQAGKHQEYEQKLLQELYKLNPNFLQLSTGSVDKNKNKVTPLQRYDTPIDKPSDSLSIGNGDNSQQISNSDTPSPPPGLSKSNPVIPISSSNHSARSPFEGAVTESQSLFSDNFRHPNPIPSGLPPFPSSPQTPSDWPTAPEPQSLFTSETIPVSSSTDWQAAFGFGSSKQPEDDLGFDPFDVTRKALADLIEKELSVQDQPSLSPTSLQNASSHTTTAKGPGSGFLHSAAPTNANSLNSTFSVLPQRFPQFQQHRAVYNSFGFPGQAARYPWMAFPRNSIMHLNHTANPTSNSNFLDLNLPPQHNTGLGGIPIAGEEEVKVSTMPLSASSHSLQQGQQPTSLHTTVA

By UniProt entry, the sequences of proteins in these tests, tags left out.
UniProt Q8K0V4: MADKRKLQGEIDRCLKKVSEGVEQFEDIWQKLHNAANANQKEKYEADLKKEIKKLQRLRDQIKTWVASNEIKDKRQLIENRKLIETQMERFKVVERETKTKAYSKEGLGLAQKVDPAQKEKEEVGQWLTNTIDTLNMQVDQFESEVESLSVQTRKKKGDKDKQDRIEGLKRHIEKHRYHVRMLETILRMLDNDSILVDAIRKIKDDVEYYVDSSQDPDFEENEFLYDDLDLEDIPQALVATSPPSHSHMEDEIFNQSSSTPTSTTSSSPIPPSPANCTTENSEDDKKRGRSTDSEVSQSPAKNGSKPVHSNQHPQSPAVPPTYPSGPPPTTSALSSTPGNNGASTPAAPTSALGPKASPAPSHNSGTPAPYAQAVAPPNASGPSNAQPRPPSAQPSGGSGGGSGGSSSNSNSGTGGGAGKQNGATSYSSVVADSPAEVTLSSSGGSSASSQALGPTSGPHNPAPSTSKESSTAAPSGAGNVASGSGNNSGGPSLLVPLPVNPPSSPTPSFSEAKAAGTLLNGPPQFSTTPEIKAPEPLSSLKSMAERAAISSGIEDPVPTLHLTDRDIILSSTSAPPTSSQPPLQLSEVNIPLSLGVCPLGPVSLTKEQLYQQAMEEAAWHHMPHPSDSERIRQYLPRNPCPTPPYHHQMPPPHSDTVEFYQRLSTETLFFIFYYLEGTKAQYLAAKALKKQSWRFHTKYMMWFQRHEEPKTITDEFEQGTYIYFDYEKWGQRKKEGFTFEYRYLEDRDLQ
UniProt Q8K3P5: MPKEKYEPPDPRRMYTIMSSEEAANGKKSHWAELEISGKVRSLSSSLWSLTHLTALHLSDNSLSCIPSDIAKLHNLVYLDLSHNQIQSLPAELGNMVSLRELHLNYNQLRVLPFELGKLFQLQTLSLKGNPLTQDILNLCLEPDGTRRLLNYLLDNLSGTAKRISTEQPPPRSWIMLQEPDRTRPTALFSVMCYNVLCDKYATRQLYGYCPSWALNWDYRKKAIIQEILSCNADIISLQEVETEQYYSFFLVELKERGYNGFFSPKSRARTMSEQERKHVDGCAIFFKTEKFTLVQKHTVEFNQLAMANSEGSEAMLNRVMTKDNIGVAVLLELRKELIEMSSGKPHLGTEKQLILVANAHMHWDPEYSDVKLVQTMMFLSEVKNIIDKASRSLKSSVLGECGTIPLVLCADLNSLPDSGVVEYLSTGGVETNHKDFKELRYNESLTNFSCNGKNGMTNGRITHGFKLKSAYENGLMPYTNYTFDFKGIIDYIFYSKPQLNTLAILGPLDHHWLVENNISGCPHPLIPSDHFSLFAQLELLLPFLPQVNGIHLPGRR
UniProt Q60809: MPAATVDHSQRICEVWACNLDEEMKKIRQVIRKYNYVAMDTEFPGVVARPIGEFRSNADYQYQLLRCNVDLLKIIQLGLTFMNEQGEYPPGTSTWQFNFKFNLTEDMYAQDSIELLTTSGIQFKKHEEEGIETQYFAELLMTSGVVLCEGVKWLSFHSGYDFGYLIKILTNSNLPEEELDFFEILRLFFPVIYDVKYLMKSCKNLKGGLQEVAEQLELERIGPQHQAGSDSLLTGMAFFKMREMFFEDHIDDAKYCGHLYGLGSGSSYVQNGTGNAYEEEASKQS
UniProt Q9D8X5: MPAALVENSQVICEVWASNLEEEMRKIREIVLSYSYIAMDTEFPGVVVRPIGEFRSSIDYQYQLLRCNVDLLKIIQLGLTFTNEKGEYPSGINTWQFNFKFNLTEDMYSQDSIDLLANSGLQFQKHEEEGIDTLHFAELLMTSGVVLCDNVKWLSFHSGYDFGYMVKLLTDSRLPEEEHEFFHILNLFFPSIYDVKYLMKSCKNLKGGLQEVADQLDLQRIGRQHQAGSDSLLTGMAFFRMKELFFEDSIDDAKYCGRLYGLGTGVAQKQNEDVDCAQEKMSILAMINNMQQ
UniProt Q9JKY0: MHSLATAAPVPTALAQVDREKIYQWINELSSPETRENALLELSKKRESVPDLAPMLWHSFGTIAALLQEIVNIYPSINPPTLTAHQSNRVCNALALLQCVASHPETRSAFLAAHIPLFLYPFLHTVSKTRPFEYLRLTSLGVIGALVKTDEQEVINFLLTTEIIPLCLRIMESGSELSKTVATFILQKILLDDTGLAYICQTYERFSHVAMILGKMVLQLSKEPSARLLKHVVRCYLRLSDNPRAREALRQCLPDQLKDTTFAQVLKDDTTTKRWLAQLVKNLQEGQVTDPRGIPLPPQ
UniProt P60324: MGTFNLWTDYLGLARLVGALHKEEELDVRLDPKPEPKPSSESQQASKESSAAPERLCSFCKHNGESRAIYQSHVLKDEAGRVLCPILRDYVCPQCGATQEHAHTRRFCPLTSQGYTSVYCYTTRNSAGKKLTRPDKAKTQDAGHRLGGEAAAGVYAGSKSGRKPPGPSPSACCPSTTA
UniProt A5YKK6: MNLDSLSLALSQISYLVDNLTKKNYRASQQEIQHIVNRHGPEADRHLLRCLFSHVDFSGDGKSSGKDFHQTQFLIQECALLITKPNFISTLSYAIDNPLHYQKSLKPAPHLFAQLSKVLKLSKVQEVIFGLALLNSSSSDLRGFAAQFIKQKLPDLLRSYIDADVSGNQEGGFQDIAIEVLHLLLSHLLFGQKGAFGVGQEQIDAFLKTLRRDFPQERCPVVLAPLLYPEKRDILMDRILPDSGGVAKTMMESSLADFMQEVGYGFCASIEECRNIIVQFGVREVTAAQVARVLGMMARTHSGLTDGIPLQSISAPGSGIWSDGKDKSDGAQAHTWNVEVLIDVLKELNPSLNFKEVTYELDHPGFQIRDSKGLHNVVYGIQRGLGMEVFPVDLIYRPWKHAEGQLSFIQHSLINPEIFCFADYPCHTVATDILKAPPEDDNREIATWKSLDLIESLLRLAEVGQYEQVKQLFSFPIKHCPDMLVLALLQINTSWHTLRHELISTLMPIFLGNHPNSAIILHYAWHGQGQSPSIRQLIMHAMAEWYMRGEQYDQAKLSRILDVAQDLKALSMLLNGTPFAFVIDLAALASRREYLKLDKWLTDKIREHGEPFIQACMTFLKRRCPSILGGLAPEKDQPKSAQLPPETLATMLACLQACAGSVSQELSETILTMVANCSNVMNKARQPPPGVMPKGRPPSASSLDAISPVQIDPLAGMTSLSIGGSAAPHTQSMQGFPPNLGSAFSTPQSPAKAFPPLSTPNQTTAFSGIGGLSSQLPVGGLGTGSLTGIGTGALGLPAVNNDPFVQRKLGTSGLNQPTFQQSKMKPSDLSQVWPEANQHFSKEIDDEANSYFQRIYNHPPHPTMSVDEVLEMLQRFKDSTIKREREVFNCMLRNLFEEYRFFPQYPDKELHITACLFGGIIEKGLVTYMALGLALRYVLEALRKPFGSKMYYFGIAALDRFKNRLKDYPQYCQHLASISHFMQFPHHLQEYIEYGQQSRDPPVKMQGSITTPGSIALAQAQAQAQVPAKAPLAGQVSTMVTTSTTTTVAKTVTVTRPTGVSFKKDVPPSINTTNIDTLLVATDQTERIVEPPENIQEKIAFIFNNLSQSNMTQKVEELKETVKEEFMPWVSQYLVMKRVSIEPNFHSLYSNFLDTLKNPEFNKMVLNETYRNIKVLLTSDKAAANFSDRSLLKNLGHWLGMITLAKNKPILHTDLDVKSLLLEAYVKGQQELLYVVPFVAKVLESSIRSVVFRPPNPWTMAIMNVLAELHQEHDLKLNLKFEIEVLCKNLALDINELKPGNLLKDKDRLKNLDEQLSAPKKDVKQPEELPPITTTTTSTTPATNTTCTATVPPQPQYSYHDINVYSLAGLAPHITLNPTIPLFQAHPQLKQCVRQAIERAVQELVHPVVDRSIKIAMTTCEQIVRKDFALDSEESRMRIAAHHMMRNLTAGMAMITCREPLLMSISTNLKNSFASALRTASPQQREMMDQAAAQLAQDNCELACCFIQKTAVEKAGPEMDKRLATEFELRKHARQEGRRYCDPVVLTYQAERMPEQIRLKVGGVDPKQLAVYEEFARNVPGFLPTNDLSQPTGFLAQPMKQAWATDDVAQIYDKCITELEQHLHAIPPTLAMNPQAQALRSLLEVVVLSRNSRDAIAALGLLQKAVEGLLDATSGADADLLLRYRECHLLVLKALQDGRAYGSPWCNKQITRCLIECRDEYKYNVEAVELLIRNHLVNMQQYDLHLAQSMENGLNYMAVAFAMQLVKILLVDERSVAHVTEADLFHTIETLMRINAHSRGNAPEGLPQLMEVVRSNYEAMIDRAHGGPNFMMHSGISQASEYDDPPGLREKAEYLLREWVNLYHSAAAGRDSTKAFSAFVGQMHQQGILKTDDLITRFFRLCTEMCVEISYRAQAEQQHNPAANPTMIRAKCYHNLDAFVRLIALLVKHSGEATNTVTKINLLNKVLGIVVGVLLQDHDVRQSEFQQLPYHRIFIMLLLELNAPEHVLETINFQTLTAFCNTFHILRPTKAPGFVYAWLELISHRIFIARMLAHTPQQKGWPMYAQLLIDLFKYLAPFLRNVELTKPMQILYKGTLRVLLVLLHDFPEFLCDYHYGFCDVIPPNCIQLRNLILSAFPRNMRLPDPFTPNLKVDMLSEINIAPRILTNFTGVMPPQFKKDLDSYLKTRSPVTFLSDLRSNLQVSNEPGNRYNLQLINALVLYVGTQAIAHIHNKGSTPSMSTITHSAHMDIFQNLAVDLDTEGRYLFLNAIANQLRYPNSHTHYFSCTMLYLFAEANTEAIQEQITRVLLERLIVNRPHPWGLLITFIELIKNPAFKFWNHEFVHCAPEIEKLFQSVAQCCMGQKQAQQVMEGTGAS
UniProt O75175: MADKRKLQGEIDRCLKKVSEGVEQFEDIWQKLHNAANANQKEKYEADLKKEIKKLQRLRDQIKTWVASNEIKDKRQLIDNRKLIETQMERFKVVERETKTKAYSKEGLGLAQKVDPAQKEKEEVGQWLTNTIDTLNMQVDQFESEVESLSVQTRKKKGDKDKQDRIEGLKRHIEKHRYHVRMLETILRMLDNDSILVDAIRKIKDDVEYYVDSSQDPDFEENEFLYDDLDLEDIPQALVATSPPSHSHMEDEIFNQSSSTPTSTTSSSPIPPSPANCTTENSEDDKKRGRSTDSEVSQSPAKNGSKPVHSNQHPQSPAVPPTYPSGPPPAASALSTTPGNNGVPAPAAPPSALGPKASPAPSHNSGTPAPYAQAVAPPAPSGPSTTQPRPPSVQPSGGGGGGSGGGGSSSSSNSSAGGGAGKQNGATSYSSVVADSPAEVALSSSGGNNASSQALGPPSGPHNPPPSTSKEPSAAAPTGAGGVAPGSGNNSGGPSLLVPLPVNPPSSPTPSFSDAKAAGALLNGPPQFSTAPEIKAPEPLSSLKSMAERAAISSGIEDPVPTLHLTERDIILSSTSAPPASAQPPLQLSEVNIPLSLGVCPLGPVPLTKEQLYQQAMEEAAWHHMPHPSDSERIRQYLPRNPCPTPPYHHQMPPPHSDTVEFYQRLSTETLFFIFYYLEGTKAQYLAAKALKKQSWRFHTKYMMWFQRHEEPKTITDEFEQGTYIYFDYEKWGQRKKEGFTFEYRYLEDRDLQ
UniProt Q9UIV1: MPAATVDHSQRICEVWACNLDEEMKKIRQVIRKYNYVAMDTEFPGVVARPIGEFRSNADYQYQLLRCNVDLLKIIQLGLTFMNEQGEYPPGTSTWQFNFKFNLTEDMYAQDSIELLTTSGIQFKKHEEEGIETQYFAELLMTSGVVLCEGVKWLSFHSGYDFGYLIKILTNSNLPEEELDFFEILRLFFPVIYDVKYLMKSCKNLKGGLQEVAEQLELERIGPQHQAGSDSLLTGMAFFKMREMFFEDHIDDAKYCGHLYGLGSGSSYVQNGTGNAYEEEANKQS
UniProt Q92600: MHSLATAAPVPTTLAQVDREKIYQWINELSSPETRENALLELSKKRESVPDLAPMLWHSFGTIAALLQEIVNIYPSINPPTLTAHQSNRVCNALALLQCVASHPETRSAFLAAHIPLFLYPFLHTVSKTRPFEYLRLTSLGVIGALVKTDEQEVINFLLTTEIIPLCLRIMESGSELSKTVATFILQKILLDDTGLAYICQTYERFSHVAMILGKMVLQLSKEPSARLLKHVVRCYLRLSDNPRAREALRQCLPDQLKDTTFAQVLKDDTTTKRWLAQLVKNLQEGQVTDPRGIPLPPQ
UniProt Q9UFF9: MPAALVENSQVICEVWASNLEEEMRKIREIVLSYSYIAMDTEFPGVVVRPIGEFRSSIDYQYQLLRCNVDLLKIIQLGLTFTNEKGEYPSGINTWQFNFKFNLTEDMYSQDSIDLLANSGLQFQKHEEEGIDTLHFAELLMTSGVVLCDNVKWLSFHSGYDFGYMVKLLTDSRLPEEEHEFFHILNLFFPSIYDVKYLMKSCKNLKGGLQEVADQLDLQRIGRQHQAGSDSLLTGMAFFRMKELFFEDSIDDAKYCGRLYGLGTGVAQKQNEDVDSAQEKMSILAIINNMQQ

[5] = target: GST-fused CNOT6 (UniProt Q8K3P5); assay: as above
[6] = target: GST-fused CNOT6L (UniProt Q8VEG6); assay: as above
[7] = target: GST-fused CNOT7 (UniProt Q60809); assay: as above
[8] = target: GST-fused CNOT8 (UniProt Q9D8X5); assay: as above
[9] = target: GST-fused CNOT9 (UniProt Q9JKY0); assay: as above
[10] = target: Flag-tagged NANOS2 (mouse) (UniProt P60322); assay: co-IP; Flag-tagged NANOS protein transfected into HeLa cells, precipitated with anti-FLAG antibodies from cell extracts; endogenous CNOT proteins detected by western blotting
[11] = target: T2, Flag-tagged NANOS2-ZM (mouse) (UniProt P60322); assay: as above
T2 sequence: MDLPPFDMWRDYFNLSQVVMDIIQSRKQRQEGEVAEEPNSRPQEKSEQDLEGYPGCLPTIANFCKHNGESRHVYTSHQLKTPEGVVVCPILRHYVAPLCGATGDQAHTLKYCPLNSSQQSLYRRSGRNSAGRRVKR

[12] = target: Flag-tagged NANOS3 (mouse) (UniProt P60324); assay: as above

Substance: endogenous CNOT1 (from UniProt A5YKK6 1-2376)
- binding [10]: binds
- binding [11]: binds

Substance: endogenous CNOT3 (from UniProt O75175 1-753)
- binding [10]: binds

Substance: endogenous CNOT7 (from UniProt Q9UIV1 1-285)
- binding [10]: binds

Substance: endogenous CNOT9 (from UniProt Q92600 1-299)
- binding [10]: binds

Other lines, results leading:

- binding [1]: no binding
- binding [2]: no binding
- binding [3]: no binding
- binding [4]: no binding
- binding [5]: no binding
- binding [6]: no binding
- binding [7]: no binding
- binding [8]: binds
- binding [9]: no binding
Substance: MBP-NANOS3 fusion protein (from UniProt P60324 1-178)

- binding [12]: binds weakly
Substance: endogenous CNOT8 (from UniProt Q9UFF9 1-292)
